Data: PubChem BioAssay AID1159614 (National Center for Advancing Translational Sciences (NCATS), 2016)
Among all 45,000 compounds or so, about 65 (0.1%) were called active. Calls follow the shape of the dose curve; as a rule, active = well fitted activation curve with a large enough effect; inconclusive = small, poorly fitted or top-dose-only effect; inactive = no such curve, though single readings can be large or run the other way. Some of the results follow.

Molecular target: Galactocerebrosidase (Homo sapiens) (UniProt P54803)
Chain of UniProt P54803 (P54803 whole entry, looked up): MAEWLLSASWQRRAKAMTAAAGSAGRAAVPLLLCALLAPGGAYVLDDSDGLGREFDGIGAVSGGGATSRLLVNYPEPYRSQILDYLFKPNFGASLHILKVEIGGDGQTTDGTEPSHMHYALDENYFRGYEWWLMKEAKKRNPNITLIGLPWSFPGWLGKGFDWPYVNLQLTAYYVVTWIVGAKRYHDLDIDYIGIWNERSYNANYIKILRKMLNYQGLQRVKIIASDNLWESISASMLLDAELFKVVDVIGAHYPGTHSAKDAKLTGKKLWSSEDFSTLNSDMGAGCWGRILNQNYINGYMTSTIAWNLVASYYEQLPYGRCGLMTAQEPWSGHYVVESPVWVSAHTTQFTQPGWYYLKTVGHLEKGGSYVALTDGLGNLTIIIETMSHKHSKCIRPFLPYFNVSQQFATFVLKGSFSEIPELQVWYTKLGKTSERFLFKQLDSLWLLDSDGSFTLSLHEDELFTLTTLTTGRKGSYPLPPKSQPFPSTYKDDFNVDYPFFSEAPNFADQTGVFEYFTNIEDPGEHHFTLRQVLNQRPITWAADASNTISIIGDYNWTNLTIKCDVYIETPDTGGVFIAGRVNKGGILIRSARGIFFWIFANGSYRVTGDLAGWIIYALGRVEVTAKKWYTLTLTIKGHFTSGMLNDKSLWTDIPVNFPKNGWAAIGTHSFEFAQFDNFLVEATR
Experiment: A Novel Cell-Based Assay to Identify Small Molecules for B -Galactocerebrosidase; also: 0% is about no effect; nearly all actives have a fitted effect of over 65% in size
Conditions: 145M-Twi-hGALC-G270D cells (Twitcher mouse brain line with human GALC G270D), HMU-beta-Gal fluorescence, 48 h; series mostly up to 57.5 µM; activation: at the top concentration
How it was run: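 Brain-derived Twitcher mouse 145M-Twi cells stably expressing human GALC-G270D or wild-type GALC, treated live, then residual GALC activity read by fluorescence of HMU-b-Gal substrate (0.1 mM final) in citrate-phosphate buffer pH 5.2 with sodium taurocholate. Signal increase indicates enhancement.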

activation, inactive:
CCN(Cc1ccccc1)S(=O)(=O)c1ccc(N2CCCCS2(=O)=O)cc1 -21.6%
CCc1ccc2nc(N3CCC(C(=O)NCCC(C)C)CC3)sc2c1 -14.4%
CCCCNC(=O)c1cnc2c(-c3ccc(OCC)c(OCC)c3)c(C)nn2c1-c1ccccc1 -15.5%
O=C(CCS(=O)(=O)c1cc2c(cc1Cl)NC(=O)CO2)NCc1ccccc1 -9.41%
CC(CNC(=O)Cn1ncc2c3ccccc3n(Cc3cccc(Cl)c3)c2c1=O)c1ccccc1 (configuration not stated) -6.94%
COCCNC(=O)CSc1nc(-c2ccc(F)cc2)[nH]c1-c1ccc(Cl)cc1 -17.7%
O=C(COc1ccccc1)Nc1ccc(OCc2cc(=O)n3ccsc3n2)cc1 -11.5%
CCOc1ccc(C(=O)Nc2ccc(S(=O)(=O)N(Cc3ccccc3)c3ccccc3)cc2)cc1 -18.2%
COc1ccc(OC)c(C2CC(=O)N(c3cccc(C)c3)C3=C2C(=O)OC3)c1 (configuration not stated) -16.7%
Nc1nc(=S)c2[nH]cnc2[nH]1 -7.29%
CCOC(=O)c1c(NC(=O)CSc2cn(CCNC(=O)c3ccc(OCC)cc3)c3ccccc23)sc2c1CCCC2 4.08%
Cc1cc(N2CCCCC2)nc2ccc(NC(=O)c3ccc(F)cc3)cc12 0.161%
Cc1cccc(CC(=O)NC2CC(=O)N(c3cccc(F)c3)C2)c1 (configuration not stated) 4.58%
COc1ccc(OC)c(NC(=O)C2CCN(S(=O)(=O)c3ccc(C)cc3)CC2)c1 -18.3%
CC(C)CCNC(=O)C(=O)Nc1c2c(nn1-c1ccccc1)CS(=O)(=O)C2 -6.48%
O=C(CSc1nc2cc3ccccc3cc2[nH]1)Nc1cccc(C(F)(F)F)c1 -4.79%
CNS(=O)(=O)c1cn(CC(=O)Nc2ccc(OC)c(Cl)c2)cc1S(=O)(=O)NC -5.3%
COc1ccccc1N1CCN(S(=O)(=O)c2ccc(-c3cc(C(F)(F)F)on3)s2)CC1 -8.53%
Cc1cc(F)ccc1Nc1nc2ccccc2n2nnnc12 -18.9%
CN(C(=O)CSc1nc2ncccc2o1)c1ccc(F)cc1 -16.3%
O=c1c2ccccc2n(Cc2cccc(Cl)c2)c(=O)n1CCc1ccccc1 -5.65%
COc1ccc(-c2cc(C(C)=O)c(C)n2CCC(=O)Nc2cc(C)ccc2OC)cc1 -7.17%
CC(=O)NCCc1nc2ccccc2n1CCCCOc1ccc(Cl)cc1 -12.5%
CCN(c1ccccc1)c1nnc(NC(=O)Nc2cccc(C(F)(F)F)c2)s1 -6.32%
CCOC(=O)c1cc(OC(=O)c2cccc(C)c2)n(-c2ccccc2)n1 -13.3%
COCc1cc(C)nc2sc3c(c12)NC(c1ccc(NC(C)=O)cc1)N(c1ccc(C)cc1)C3=O (configuration not stated) -8.76%
COc1cccc(CNc2ncnc3onc(-c4ccc(F)cc4)c23)c1 2.88%
CC(=O)Nc1nonc1-c1nnc(SCC(=O)Nc2cc(C)ccc2C)n1-c1ccccc1 -30.3%
O=C1c2ccccc2C(=O)c2c1ccc(O)c2O -15.3%
COc1cccc2cc(-c3nc4sc(C(=O)Nc5ccc(F)cc5F)c(C)c4c(=O)[nH]3)c(=O)oc12 13.9%
Cc1ccc(C)c(N2CCN(c3ncnc4onc(C)c34)CC2)c1 -25.8%
CCOC(=O)c1ccccc1NC(=O)N1CCN2CCCCC2C1 (configuration not stated) -13.1%
COCc1cc(C)nc2sc3c(=O)n(-c4cc(C)ccc4C)nnc3c12 -5.69%
Cc1ccc(NC(=O)C(=O)NCC(c2cccnc2)N2CCN(C)CC2)cc1C (configuration not stated) -21.7%
COc1ccc(NC(=O)c2oc3c(c2C)-c2nn(Cc4c(F)cccc4Cl)cc2CC3)c(OC)c1 -17.5%
Cc1ccc(OCC(=O)Nc2ccc(C(=O)OCc3cc(=O)n4nc(C5CC5)sc4n3)cc2)cc1 -13%
COc1ccc(CNc2nc3c(S(=O)(=O)c4ccccc4)nnn3c3ccc(Cl)cc23)cc1 -25.7%
CCOc1ccc(Nc2oc(/C=C/c3ccc(F)cc3)nc2C#N)cc1 -12.9%
COc1ccc(C2C(C(=O)Nc3ccccc3)=C(C)Nc3nc(-c4ccccc4)nn32)cc1OC (configuration not stated) -5.28%
COc1ccc(OC)c(-c2nc(Nc3ccccc3C)sc2CC(=O)O)c1 -29%
Cc1cc(C)n(-c2nc3ccccc3nc2Nc2cccc(C(F)(F)F)c2)n1 -13.8%
CCOC(=O)c1ccccc1NC(=O)CSc1ccc(-c2sc(-c3ccccc3)nc2C)nn1 -5.04%
O=C1CCSC2(C(=O)N(Cc3ccc(F)cc3)c3ccccc32)N1c1ccccc1 (configuration not stated) -14.1%
CCc1ccc(NC(=O)c2cc3ccccn3n2)cc1 -10.7%
Cc1cc(C)c2c(CC(=O)Nc3nnc(C(C)C)s3)coc2c1 -10.5%
Fc1ccccc1CNCCCSc1nnnn1-c1ccccc1 -9.52%
O=C(CSc1nc(=O)[nH]c2c1CCCC2)Nc1cc(C(F)(F)F)ccc1Cl -5.55%
CCOC(=O)c1cccc(NC(=O)c2cc3c(Cl)nc4ccc(C)cc4c3s2)c1 -1.27%
CCc1ccc(NS(=O)(=O)c2ccc3[nH]cc(C(=O)NC4CCCC4)c(=O)c3c2)cc1 13.2%
COc1ccc(-n2cc(-c3ccccc3)c3c(SC(C)C(C)=O)ncnc32)cc1 (configuration not stated) -2.92%
CC(C)CCNC(=O)CN1C(=O)COc2ccc(S(=O)(=O)N3CCOCC3)cc21 -6.99%
COc1ccc(NC(=O)C(=O)NCCc2ccccc2)cc1OC -8.73%
CC(C)c1ccc(NC(=O)C2CCCN(S(=O)(=O)c3ccc(Br)s3)C2)cc1 (configuration not stated) -41.8%
COc1cccc(C(=O)Nc2ccccc2C(=O)OCc2cc(=O)n3nc(C)sc3n2)c1 -5.75%
CC1CCC(NC(=O)c2ccc3c(c2)N(Cc2cccc(F)c2)C(=O)c2ccccc2S3)CC1 (configuration not stated) -2.01%
CCc1nnc(SCc2ccc(F)cc2Cl)c2cc3sccc3n12 -15.6%
Cc1ccc(C)c(NC(=O)C(C)n2c(=O)cc(C(F)(F)F)c3c(C)nn(C)c32)c1 (configuration not stated) 7.47%
CCN1CCN(C(=O)c2ccc3c(c2)N(Cc2cccc(Cl)c2)C(=O)c2ccccc2S3(=O)=O)CC1 -4.91%
COc1ccccc1CNC(=O)CSc1ncc2c(n1)-c1ccccc1N(Cc1ccc(C)cc1)S2(=O)=O -9.14%
COc1ccc(-c2noc(C3CC(=O)N(c4ccc(C)c(F)c4)C3)n2)c(OC)c1 (configuration not stated) -20.7%
CCc1ccc(CNC(=O)c2ccc3c(c2)nc2n3CCOC2)cc1 -1.07%
Fc1ccc(-c2cc(-c3nc(-c4cccc(Cl)c4)no3)[nH]n2)cc1 -24.9%
COc1cc(OC)c(OC)cc1CN1CCc2nc(N3CCN(c4ncccn4)CC3)ncc2C1 -12.6%
Cc1ccc(CNC(=O)c2cc3sccc3n2Cc2ccc(F)cc2)cc1 -13.1%
CCC(=O)N1CCc2cc(S(=O)(=O)CCC(=O)N3CCN(c4ccccc4F)CC3)ccc21 -4.07%
CC(=O)c1ccc(NS(=O)(=O)c2ccc3[nH]c4c(c3c2)CCCCCC4)cc1 -15.3%
CCC(CC)C(=O)N1CCc2cc(OC)c(OC)cc2C1COc1ccccc1OC (configuration not stated) -18.7%
CN1CCN(CCCN2c3ccccc3Sc3ccc(Cl)cc32)CC1 -9.39%
Cc1ccc(C)c(Cn2nnc(C(=O)NCc3ccccc3)c2N)c1 -12.4%
CN1CCN(C(CNC(=O)C(=O)Nc2ccc(F)cc2)c2cccnc2)CC1 (configuration not stated) -12.6%
Cc1ccc(NC(=O)CN2C(=O)CCc3cc(S(=O)(=O)N4CCOCC4)ccc32)c(C)c1 -9.86%
CCOc1ccc(CNC(=O)c2sc3nc(C)cc(C)c3c2-n2cccc2)cc1 -0.608%
Cc1cc2oc(C(=O)Nc3nc(-c4ccccc4)ns3)c(C)c2cc1Cl -14%
COc1ccc(-c2nn(C)c3sc(C(=O)N4CCN(c5cc(Cl)ccc5C)CC4)cc23)cc1OC -2.33%
O=C(c1ccc2c(c1)N(Cc1cccc(Cl)c1)C(=O)c1ccccc1S2(=O)=O)N1CCN(c2cccc(C(F)(F)F)c2)CC1 -16.9%
CCOc1ccc(-c2nonc2NC(=O)COc2ccc(C)c(C)c2)cc1OCC 8.26%
CCOc1ccc(NC(=O)CSc2nnc(NC(=O)Nc3ccccc3)s2)cc1 -0.146%
Cc1nc2cc(-c3cccc(F)c3)nn2c(C)c1CCC(=O)NC1CCCCC1 -23.6%
Cc1ccc(Cn2c(=O)n(Cc3ccc(Cl)cc3)c(=O)c3cccnc32)cc1 -16%
CCOc1ccc(-c2cnc(NCc3cccc(Cl)c3)n2C)cc1 -12.2%
COc1ccc(CCNC(=O)Cn2c(=O)c3cccn3c3ccc(F)cc32)cc1OC -17.4%
COc1ccc(C(=O)CCC(=O)Nc2cccc(C(C)=O)c2)cc1 -17.3%
Cc1ccccc1-n1nc(CO)c(C(=O)NCCc2ccccc2)n1 0.481%
COc1cccc(NC(=O)C(=O)NCC(c2cccnc2)N2CCN(c3ccccc3)CC2)c1 (configuration not stated) -14.9%
CCOC(=O)CSc1nc2ccc(NC(=O)COc3ccccc3)cc2s1 -7.11%
COc1ccc(OC)c(CNc2ncnc3onc(-c4ccc(Cl)cc4)c23)c1 -6.49%
Cc1cccc(CSc2cn(CC(=O)N3CCCCCC3)c3ccccc23)c1 -15%
CC1CCc2c(sc(NC(=O)c3ccccc3)c2C(=O)Nc2ccccc2)C1 (configuration not stated) -10.4%
CCCOc1ccc(-c2cccc(NS(=O)(=O)c3cc(OC)ccc3OC)c2)nn1 -10.8%
O=C(NCc1ccc(Cl)cc1)c1cnc2sc(N3CCCCCC3)nn2c1=O -8.91%
CCCCN(C)CCNC(=O)C1CCN(c2nc3ccc(CC)cc3s2)CC1 -14.4%
COc1ccc(C(c2c(O)cc(C)n(Cc3ccco3)c2=O)N2CCN(c3ccccc3)CC2)cc1 (configuration not stated) -0.432%
COc1ccc(Cl)cc1NC(=O)C1CCN(c2ncnc3c2nc2n3CCCCC2)CC1 -17.8%
CCN(CC)c1ccc(NC(=O)c2cnn3c(C(F)F)cc(-c4ccccc4)nc23)cc1 -27.9%
O=C(CCC(=O)N1Cc2ccccc2Oc2ncccc21)NCc1ccccc1Cl 2.72%
CCN(CC)CC(=O)OCC(=O)[C@@]1(O)CC[C@H]2[C@@H]3CCC4=CC(=O)CC[C@]4(C)[C@H]3[C@@H](O)C[C@@]21C -14.9%
COc1ccc(N2C(=O)CSC23C(=O)N(Cc2cccc(C(F)(F)F)c2)c2ccccc23)cc1 (configuration not stated) -15.8%
